Test results reported in the antibiotic and cytotoxicity screens of Wong et al. (2023).
The other results are listed elsewhere or left out.

How the values were obtained:
HSkMC = human skeletal muscle cells; assay: cytotoxicity call (relative viability < 0.9); settings: 10 µM
HepG2 = assay: cytotoxicity call (relative viability < 0.9); settings: 10 µM
S. aureus RN4220 = assay: growth inhibition call (relative growth <= 0.2); settings: 50 µM

C[C@@H]1CCCCO[C@@H](CN(C)C(=O)C2CCCCC2)[C@H](C)CN([C@H](C)CO)C(=O)c2cc(NC(=O)C3CCCCC3)ccc2O1
inactive: cytotoxicity call (HSkMC) | cytotoxicity call (HepG2) | growth inhibition call (S. aureus RN4220)

COCCN1C[C@@H]2CN(C(=O)[C@H]3CCCO3)C[C@H]2C1=O
inactive: cytotoxicity call (HSkMC) | cytotoxicity call (HepG2) | growth inhibition call (S. aureus RN4220)

COc1ccnc(C#N)c1
inactive: cytotoxicity call (HSkMC) | cytotoxicity call (HepG2) | growth inhibition call (S. aureus RN4220)

CCCCCC=CCC=CCC=CCC=CCCCC(=O)O
inactive: cytotoxicity call (HSkMC) | cytotoxicity call (HepG2) | growth inhibition call (S. aureus RN4220)

C[C@@H]1CN([C@@H](C)CO)C(=O)Cc2cc(NS(=O)(=O)c3cn(C)cn3)ccc2O[C@@H]1CN(C)C
inactive: cytotoxicity call (HSkMC) | cytotoxicity call (HepG2) | growth inhibition call (S. aureus RN4220)

CC(C)=CCc1c2c(c3occ(-c4ccc(O)cc4)c(=O)c3c1O)C=CC(C)(C)O2
inactive: cytotoxicity call (HSkMC) | cytotoxicity call (HepG2) | growth inhibition call (S. aureus RN4220)

CC(=O)N(C)C[C@H]1Oc2ncc(C#C[C@@H](C)O)cc2C(=O)N([C@H](C)CO)C[C@@H]1C
inactive: cytotoxicity call (HSkMC) | cytotoxicity call (HepG2) | growth inhibition call (S. aureus RN4220)

COc1ccc2c3c([nH]c2c1)[C@@H](CO)N(C[C@]13CCN(CC1)C(=O)Nc1ccc2c(c1)OCO2)C(=O)Nc1ccc(cc1)F
inactive: cytotoxicity call (HSkMC) | cytotoxicity call (HepG2) | growth inhibition call (S. aureus RN4220)

Cc1noc(C)c1NC(=O)Nc1ccc2c(c1)C(=O)N([C@H](C)CO)C[C@H](C)[C@@H](CN(C)Cc1ccc3c(c1)OCO3)OCCCC[C@@H](C)O2
inactive: cytotoxicity call (HSkMC) | cytotoxicity call (HepG2) | growth inhibition call (S. aureus RN4220)

CCOC(=O)[C@@H](N)[C@@H](O)c1ccccc1
inactive: cytotoxicity call (HSkMC) | cytotoxicity call (HepG2) | growth inhibition call (S. aureus RN4220)

C[C@H](CO)N1C[C@H](C)[C@@H](CN(C)S(=O)(=O)c2ccc3ccccc3c2)OCc2cnnn2CCCC1=O
inactive: cytotoxicity call (HSkMC) | cytotoxicity call (HepG2) | growth inhibition call (S. aureus RN4220)
